# According to PMC10018360:
# The chains behind the UniProt entries cited, without tags or fusion partners. Where a name states a change or a piece, a line headed by the entry shows the natural chain unless it says otherwise.
# UniProt Q9Y3E1: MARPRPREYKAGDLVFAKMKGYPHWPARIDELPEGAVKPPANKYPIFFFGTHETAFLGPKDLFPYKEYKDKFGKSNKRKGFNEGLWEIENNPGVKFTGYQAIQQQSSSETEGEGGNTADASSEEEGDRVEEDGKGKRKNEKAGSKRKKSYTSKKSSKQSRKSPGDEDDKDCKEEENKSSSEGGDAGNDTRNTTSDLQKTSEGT
# UniProt Q12888: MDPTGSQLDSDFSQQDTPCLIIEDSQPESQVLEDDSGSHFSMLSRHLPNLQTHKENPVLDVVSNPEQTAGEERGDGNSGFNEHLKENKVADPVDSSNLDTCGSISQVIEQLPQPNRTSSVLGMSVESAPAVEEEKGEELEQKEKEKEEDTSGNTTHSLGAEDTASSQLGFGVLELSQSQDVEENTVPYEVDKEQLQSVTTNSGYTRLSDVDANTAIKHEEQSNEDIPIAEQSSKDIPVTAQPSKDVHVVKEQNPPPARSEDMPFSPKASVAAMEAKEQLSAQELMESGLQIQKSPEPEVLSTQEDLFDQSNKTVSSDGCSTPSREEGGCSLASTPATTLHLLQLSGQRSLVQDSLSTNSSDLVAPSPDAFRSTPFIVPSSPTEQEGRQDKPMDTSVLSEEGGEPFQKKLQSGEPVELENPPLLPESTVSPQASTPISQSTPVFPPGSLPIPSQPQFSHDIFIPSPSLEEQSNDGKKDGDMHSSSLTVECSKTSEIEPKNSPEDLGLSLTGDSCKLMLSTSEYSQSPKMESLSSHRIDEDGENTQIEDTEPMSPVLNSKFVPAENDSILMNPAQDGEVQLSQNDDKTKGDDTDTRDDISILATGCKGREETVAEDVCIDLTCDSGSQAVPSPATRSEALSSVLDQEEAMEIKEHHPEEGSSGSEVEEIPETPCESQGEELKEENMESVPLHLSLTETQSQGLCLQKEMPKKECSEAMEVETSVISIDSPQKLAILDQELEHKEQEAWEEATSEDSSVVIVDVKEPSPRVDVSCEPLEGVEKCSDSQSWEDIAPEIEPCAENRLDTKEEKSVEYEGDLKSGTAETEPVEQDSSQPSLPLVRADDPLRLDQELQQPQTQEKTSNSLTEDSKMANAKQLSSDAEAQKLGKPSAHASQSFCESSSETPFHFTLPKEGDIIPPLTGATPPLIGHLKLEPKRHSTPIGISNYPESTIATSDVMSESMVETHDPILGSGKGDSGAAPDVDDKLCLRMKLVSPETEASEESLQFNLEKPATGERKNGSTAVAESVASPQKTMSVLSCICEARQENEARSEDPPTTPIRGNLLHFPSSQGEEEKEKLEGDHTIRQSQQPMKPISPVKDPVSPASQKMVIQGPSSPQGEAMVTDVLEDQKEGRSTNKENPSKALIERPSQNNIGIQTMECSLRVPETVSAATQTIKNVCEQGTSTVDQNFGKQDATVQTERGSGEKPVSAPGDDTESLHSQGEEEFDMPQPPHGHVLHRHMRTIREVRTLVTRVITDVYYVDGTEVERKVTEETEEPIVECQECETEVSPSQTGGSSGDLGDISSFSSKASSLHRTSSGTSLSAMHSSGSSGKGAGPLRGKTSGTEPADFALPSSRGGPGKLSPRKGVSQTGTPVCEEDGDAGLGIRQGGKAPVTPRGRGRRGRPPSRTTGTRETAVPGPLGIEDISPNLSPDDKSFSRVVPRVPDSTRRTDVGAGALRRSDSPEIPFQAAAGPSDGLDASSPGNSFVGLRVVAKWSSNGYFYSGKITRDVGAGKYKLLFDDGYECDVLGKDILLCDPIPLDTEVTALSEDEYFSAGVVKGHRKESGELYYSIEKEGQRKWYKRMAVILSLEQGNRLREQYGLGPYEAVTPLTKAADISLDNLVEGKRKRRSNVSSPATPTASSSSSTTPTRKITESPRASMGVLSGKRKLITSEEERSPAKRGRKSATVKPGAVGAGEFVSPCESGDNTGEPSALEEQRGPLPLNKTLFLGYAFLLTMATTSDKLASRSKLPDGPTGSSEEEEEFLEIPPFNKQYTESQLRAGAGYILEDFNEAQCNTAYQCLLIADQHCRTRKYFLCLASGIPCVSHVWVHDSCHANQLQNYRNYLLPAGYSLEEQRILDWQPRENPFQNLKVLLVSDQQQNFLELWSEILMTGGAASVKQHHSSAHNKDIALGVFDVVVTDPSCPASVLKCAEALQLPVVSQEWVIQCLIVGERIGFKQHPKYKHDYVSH
# Results are given in words; binding and its absence hold for the method and conditions named. In cells and extracts the contact can be indirect. Some entries that bind do so weakly or less than the wild type.
# Experiments:
# [1] = target: HDGFRP3 (hepatoma-derived growth factor related protein 3), endogenous (human (endogenous in HEK293T, U2OS, MCF10A)) (UniProt Q9Y3E1); test: co-IP; endogenous proteins; HEK293T lysates in NTEN buffer with Benzonase, Protein A agarose with anti-HDGFRP3 or anti-53BP1 antibody, 3 h at 4°C; untreated or irradiated (10 Gy, 1 h recovery)
# [2] = target: SFB-tagged human HDGFRP3 (wild type) (human) (UniProt Q9Y3E1); test: co-IP; HEK293T cells co-transfected with HA-tagged 53BP1 and SFB-tagged HDGFRP3 (WT or mutants); precipitation with streptavidin beads, western blotting
# [3] = target: GST-HDGFRP3 fusion protein (human) (UniProt Q9Y3E1); test: pull-down; GST-HDGFRP3 (10 μg) immobilised on glutathione Sepharose 4B beads, incubated with lysates of HEK293T cells expressing HA-53BP1 (WT, 28SA or 30SA) in NTEN buffer with 2 mM MgCl2 and Benzonase, 3 h at 4°C; cells untreated, IR 10 Gy, or ATMi before IR; only the target purified
# SFB-53BP1 (wild type) = SFB-53BP1 (wild type) (UniProt Q12888); test: proximity ligation; in situ PLA in U2OS cells transfected with an SFB-tagged construct; FLAG antibody and antibody to the endogenous partner
# [4] = target: 53BP1, endogenous (human (endogenous in HEK293T, U2OS, MCF10A)) (UniProt Q12888); test: proximity ligation; in situ PLA (Duolink) in fixed U2OS cells with antibodies to the two endogenous proteins; untreated, IR (10 Gy), ATMi before IR, MDC1 knockdown
# [5] = target: 53BP1, endogenous (human (endogenous in HEK293T, U2OS, MCF10A)) (UniProt Q12888); test: co-IP; endogenous proteins; HEK293T lysates in NTEN buffer with Benzonase, Protein A agarose with anti-HDGFRP3 or anti-53BP1 antibody, 3 h at 4°C; untreated or irradiated (10 Gy, 1 h recovery)
# [6] = target: 53BP1, endogenous (human (endogenous in HEK293T, U2OS, MCF10A)) (UniProt Q12888); test: proximity ligation; in situ PLA in U2OS cells transfected with an SFB-tagged construct; FLAG antibody and antibody to the endogenous partner
substance,measurement,setting,value
"53BP1, endogenous (from UniProt Q12888 1-1972)",binding,[1],binds
HA-53BP1 D1521R mutant (from UniProt Q12888 1-1972),binding,[2],no binding
HA-53BP1 L1619A mutant (from UniProt Q12888 1-1972),binding,[2],binds
HA-tagged 53BP1 (wild type) (from UniProt Q12888 1-1972),binding,[2],binds
same,binding,[3],binds
"HDGFRP3 (hepatoma-derived growth factor related protein 3), endogenous (from UniProt Q9Y3E1 1-203)",binding,SFB-53BP1 (wild type),binds
same,binding,[4],binds
same,binding,[5],binds
SFB-tagged human HDGFRP3 (wild type) (from UniProt Q9Y3E1 1-203),binding,[6],binds
